Measurements as given in PubChem BioAssay AID1030 (National Center for Advancing Translational Sciences (NCATS), 2008).
The campaign covered roughly 220,000 compounds. About 16,000 (7.3%) were called active. The inconclusive results got no clear call from the source; some entries with a clear call stand among them for comparison. Calls come from the whole dose curve; as a rule, active = well fitted inhibition curve with a large enough effect (not every such curve was filed as active); inconclusive = small, poorly fitted or top-dose-only effect, or another doubt; inactive = no such curve, though single readings can be large or run the other way. Potencies of inconclusive entries are left out as doubtful fits.

Each molecule was assayed against Aldehyde dehydrogenase 1A1 (Homo sapiens) (UniProt P00352) (assay: qHTS Assay for Inhibitors of Aldehyde Dehydrogenase 1 (ALDH1A1)). Conditions: Purified ALDH1A1, NADH fluorescence, propionaldehyde substrate; series mostly up to 75.3 µM.
Potency is the fitted concentration of half-maximal effect; tags give direction and shape of the fitted curve.
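Throughout, for activity, negative = inhibition: plate controls were no enzyme wells and a reference inhibitor.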

Chain of UniProt P00352 (P00352 whole entry, looked up): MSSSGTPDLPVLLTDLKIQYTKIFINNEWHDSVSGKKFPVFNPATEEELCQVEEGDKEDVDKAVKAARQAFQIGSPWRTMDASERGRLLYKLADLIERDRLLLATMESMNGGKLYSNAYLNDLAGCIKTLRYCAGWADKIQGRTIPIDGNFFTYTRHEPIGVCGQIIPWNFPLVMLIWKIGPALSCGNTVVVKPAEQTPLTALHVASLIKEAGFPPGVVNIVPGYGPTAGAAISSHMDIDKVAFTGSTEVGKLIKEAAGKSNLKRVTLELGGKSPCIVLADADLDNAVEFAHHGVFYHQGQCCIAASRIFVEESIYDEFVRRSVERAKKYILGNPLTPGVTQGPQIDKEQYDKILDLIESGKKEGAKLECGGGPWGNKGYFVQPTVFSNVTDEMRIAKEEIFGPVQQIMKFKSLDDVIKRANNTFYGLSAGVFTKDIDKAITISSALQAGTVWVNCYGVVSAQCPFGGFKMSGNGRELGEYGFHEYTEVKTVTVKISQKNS

SMILES | Potency | activity, negative = inhibition
CC1=C([N+](=O)[O-])C(c2cccc(Br)c2)C2=C(N1)c1ccccc1C2=O (stereo not given) | inconclusive [inhibitor, partial curve] | 
CCCCCCC(=O)Cc1cc(OC)c(OC)cc1/C=C(/C(C)=O)C(=O)OC |  | inactive: -1.52% [at 13.5 µM]
CCOC(=O)N1CCC(NC(=S)Nc2ccc3nc(N4CCN(CC)CC4)cc(C)c3c2)CC1 | inconclusive [inhibitor, single point] | 
CCNS(=O)(=O)c1cc(OC)c(Cl)cc1OC | inconclusive [inhibitor, single point] | 
O=C(Nc1nnc(COc2ccccc2)s1)c1ccco1 | inconclusive [inhibitor, single point] | 
O=C(O)c1ccc(N/N=C/c2ccc3nccnc3c2)cc1 | inactive | 
Cc1cccc(NC(=O)CSc2nc(C)c(Cc3ccccc3)c(=O)[nH]2)c1C | inconclusive [inhibitor, partial curve] | 
C=CCn1c(SCC(C)=O)nnc1-c1cc(-c2ccccc2)sc1N | inconclusive [inhibitor, single point] | 
CC1CCN(c2ccc(C(=O)NCc3ccco3)cc2[N+](=O)[O-])CC1 | inconclusive [inhibitor, partial curve] | 
CCn1c(O)c(N=N)c2ccccc21 | inactive | 
Cc1cccc(C)c1NC(=O)CN(C)CC(=O)Nc1ccccc1Br | inactive | 
C=CCSc1nc(C)c(CCCC)c(=O)[nH]1 | inconclusive [inhibitor, single point] | 
CN(C)c1ccc(-c2noc(-c3ccccc3O)n2)cc1 | inconclusive [inhibitor, partial curve] | 
O=C(CSc1nncc2ccccc12)N1CCOCC1 | inconclusive [inhibitor, single point] | 
CCc1c(-c2ccccc2)nc2nc(C)c(C)nn12 | inconclusive [inhibitor, single point] | 
c1ccc(C2[C@H]3CN(Cc4cccnc4)[C@H](c4ccccc4)C34CC2(c2ccccc2)C4)cc1 (stereo not given in full) | inconclusive [inhibitor, single point] | 
O=C(/C=C/c1ccco1)NC1=NCCS1 | inconclusive [inhibitor, single point] | 
CN1CCc2nc(N)nc(-c3nc(N)nc4c3CN(C)CC4)c2C1 |  | inactive: 2.73% [at 13.5 µM]
Cn1c(=O)c(C(=O)CN2CCc3ccccc32)c(N)n(Cc2ccccc2)c1=O | inconclusive [inhibitor, single point] | 
COC(=O)N1CCC2(CCN(Cc3ccc(C#N)cc3)CC2)CC1 | inconclusive [inhibitor, single point] | 
O=C(CSc1nnc(-c2ccco2)n1Cc1ccccc1)NC(=O)NCc1ccco1 | active: 15.8 µM | 
CCCCCCC(=O)Cc1cc(OC)c(OC)cc1C=C(C(=O)OCC)C(=O)OCC | inactive | 
CCOC(=O)N1CCc2c(sc(NC(=O)c3ccc(Cl)s3)c2C(N)=O)C1 | active: 18.9 µM | 
O=C(C1CC1)N1CCc2cc(Br)cc(S(=O)(=O)NCc3ccc4c(c3)OCO4)c21 | active: 10 µM | 
Cn1cccc1Cc1nnc(SCC(=O)Nc2ccc(F)cc2)n1-c1ccc(F)cc1 | inconclusive [inhibitor, single point] | 

SMILES | Potency | activity, negative = inhibition
COc1ccccc1-c1cc(C(=O)NCc2ccc(Cl)cc2)no1 | inconclusive [inhibitor, single point] | 
COc1c(Cl)ccc(Cl)c1C(=O)O | inconclusive [inhibitor, single point] | 
Cc1ccnc(NS(=O)(=O)c2cnc(Cl)c(Br)c2)c1 | inconclusive [inhibitor, partial curve] | 
CCNc1nc(NC(C)C)nc(N(C#N)Cc2ccccc2)n1 | active: 1.78 µM | 
Fc1ccc(NC(=S)NCc2ccc3c(c2)OCO3)cc1 | inactive | 
CCn1c(=O)cc(SCC(=O)NCc2ccc(C)o2)c2ccccc21 | inactive | 
CS(=O)(=O)N1CCN(c2ccccc2NC(=O)c2ccc([N+](=O)[O-])o2)CC1 | inconclusive [inhibitor, partial curve] | 
O=C(c1cc2ccccc2oc1=O)N(Cc1ccco1)CC1CCCO1 (stereo not given) | inconclusive [inhibitor, single point] | 
CCCn1c(-c2ccc(F)cc2)nc2c(NCCCN(C)C)nc(C)nc21 | inconclusive [inhibitor, single point] | 
CCNc1ncc2nc(-c3cccs3)c(=O)n(-c3ccc(OC)cc3)c2n1 | inconclusive [inhibitor, single point] | 
O=P(OC1CCCCC1)(OC1CCCCC1)C(O)c1ccc(Cl)cc1Cl (stereo not given) | inactive | 
C#CC[N+](C)(C)CC#Cc1ccc(Cl)cc1 | inactive | 
Cc1[nH]c2ccccc2c1C(=O)CN1CCCC1 | inconclusive [inhibitor, single point] | 
O=C(N/N=C1\CCCc2ccccc21)c1cccc([N+](=O)[O-])c1 | inconclusive [inhibitor, single point] | 
CC(c1nnc(SCC(=O)Nc2cccnc2Cl)n1-c1ccccc1)N(C)C (stereo not given) | inconclusive [inhibitor, single point] | 
Cc1ccc(C(=O)NC(=S)Nc2cccc(-c3nc4ccccc4s3)c2)cc1 | active: 11.2 µM | 
Cc1ccc(C2=NN=C(NC(=O)C(F)(F)F)SC2)cc1 | inactive | 
CN(C)S(=O)(=O)N1CCN(CC(O)COc2ccc(C(=O)c3ccccc3)cc2)CC1 (stereo not given) | inconclusive [inhibitor, single point] | 
COc1ccc(-c2nnc(SCc3ccccc3)n2N)cc1 | inactive | 
Cc1ccc(C(c2nnnn2C2CCCC2)N2c3ccccc3CC2C)cc1 (stereo not given) | inconclusive [inhibitor, single point] | 
Cc1cc(C)cc(OCC(=O)N2N=C(C(F)(F)F)CC2(O)C(C)(C)C)c1 (stereo not given) | inconclusive [inhibitor, partial curve] | 
Cc1ccc(/C=C(\CCC(=O)O)c2nc3ccccc3s2)cc1[N+](=O)[O-] | inconclusive [inhibitor, single point] | 
CCCCCC1CC1C(=O)N/N=C/c1ccc(N(C)C)cc1 (stereo not given) | inconclusive [inhibitor, partial curve] | 
CCc1nnc(NC(=O)c2ccc(OC)cc2OC)s1 | active: 7.94 µM | 
Cc1cnc(NC(=O)c2ccc(-c3nc4ccccc4s3)o2)s1 | inconclusive [inhibitor, single point] | 

SMILES | Potency | activity, negative = inhibition
COc1ccc(NC(=O)CCCn2c(=O)c3sccc3n(Cc3ccc(C)cc3)c2=O)cc1 | inconclusive [inhibitor, full curve] | 
NNC(=O)c1nnn(-c2nonc2N)c1CN1CCc2ccccc2C1 | active: 3.98 µM | 
Cc1onc(-c2c(F)cccc2Cl)c1C(=O)NC(=S)NCc1cccnc1 | inconclusive [inhibitor, single point] | 
COc1ccccc1N(CN1C(=O)c2ccccc2C1=O)C(=O)c1cccnc1 | inconclusive [inhibitor, single point] | 
CC(NC(=O)c1ccc(F)cc1)c1ccc(F)cc1 (stereo not given) | inactive | 
O=C(CN1CCN(C(=O)c2ccco2)CC1)Nc1cccc([N+](=O)[O-])c1 | inactive | 
Cc1ccsc1/C=N/NC(=O)c1cccs1 | inactive | 
C/C(CCC(C)C)=N\NC(=O)COc1ccccc1-c1ccccc1 | active: 7.08 µM | 
COC(=O)CCC(=O)Nc1ccc(N=Nc2ccccc2)cc1 | inconclusive [inhibitor, single point] | 
S=c1sc2c(N3CCN(Cc4ccccc4)CC3)ncnc2n1-c1ccccc1 | inconclusive [inhibitor, partial curve] | 
CC(=O)NC1C(OCc2ccccc2)OC2COC(C)(C)OC2C1O (stereo not given) | inactive | 
Cc1ccccc1-c1cc(C(=O)Nc2sc(C(=O)OC(C)C)c(C)c2C#N)c2ccccc2n1 | active: 8.91 µM | 
COCc1cc(C)nc(SCC(=O)Nc2ccc(C)c(C)c2)c1C#N | inconclusive [inhibitor, partial curve] | 
COc1ccccc1NC(=O)CSc1ccc2nnc(-c3ccccn3)n2n1 | inconclusive [inhibitor, single point] | 
Cc1cccc(C)c1NC(=S)NCc1ccncc1 | inactive | 
CC(=O)NNC(=S)Nc1cc(S(=O)(=O)N(C)C)ccc1C | inconclusive [inhibitor, partial curve] | 
Cn1cc(Br)c(-c2cccc(NC(=O)CCCC(=O)O)c2)n1 | inactive | 
Cc1ccc(Nc2cc(=O)oc3ccccc23)c(C)c1 | inactive | 
CCCCCCc1c(O)c2ccccc2[nH]c1=O | inconclusive [inhibitor, single point] | 
CCOc1ccc(C2NC(=O)c3ccccc3O2)cc1 (stereo not given) | active: 22.4 µM | 
CC1=NN(C(=O)c2ccc(Cn3ccc([N+](=O)[O-])n3)cc2)C(O)(C(F)(F)F)C1 (stereo not given) | inactive | 
O=[N+]([O-])c1ccc(N2CCN(S(=O)(=O)c3ccccc3)CC2)c2cccnc12 | inconclusive [inhibitor, single point] | 
COc1cc(-c2noc(CCCC(=O)NCc3ccco3)n2)cc(OC)c1OC | inactive | 
COc1ccc(N2CCN(Cc3nc4sc(C)c(C)c4c(=O)[nH]3)CC2)cc1 | inactive | 
O=C(O)CCCNC(=O)c1ccc(NC(=O)Cc2ccc(Cl)cc2)cc1 | inactive | 
